Sequences and labels used below:
B1: chrX:150768173:150768360:-|3pUTR|ENSG00000102181|msi1|total|mutant (ssRNA)
RNA: GGGAGUUCUACAGUCCGACGAUCUCCCAUCUGAUUCCACCGGGGGCUGGGUGUGGCCUUCGGGUUGACAUGAGAAAGGUCUUCCGCAAUCAUUUCUGCACCGGAGAUGAGUUUUAUCCUGUGUUGGGGAGAGGUGCUCACCCUCAACAGAGGAUUGAGCAUCA
B2: chr3:141442868:141442977:+|CDS|ENSG00000177311|unk|total|mutant (ssRNA)
RNA: GGGAGUUCUACAGUCCGACGAUCCCAGCCAUCACUAAUGGGCCAAGGAUCACAAAUGCAUUUUCCAUCAUCGAAACAGAAAACCGUAAUAACAUGUUUUCCCCGCUGGACUUGAGGGCAAGUUUCAAAAAGGUCUCCGACUCCCAACAGAGGAUUGAGCAUCA
B3: chr17:74609884:74612652:-|three_prime_utr|ENSG00000186407|control|control|control (ssRNA)
RNA: GGGAGUUCUACAGUCCGACGAUCGACCUGUGGACUCUGGAGGGAUUUAUUGUUCCUGUGCCUCAAAGGAGGGUCCUGGCUCUUAGAGGACACUCCUCUGGAGUCCUCAAUGUGCAGCUUGGGGGUCCUCCUUUCUCCUCCCCACAACAGAGGAUUGAGCAUCA
B4: chr5:148417036:148417137:+|CDS|ENSG00000145868|unk|FALSE|unique (ssRNA)
RNA: GGGAGUUCUACAGUCCGACGAUCGGUUGUGCUCGAGUUGGUCUGAGUGCAGGCACAGGAAUUGGUGUUUCAUCAGCUCUUGUUAGCAACCAGAACUCCAACAAUGACGAUAAUAAUGCCCAGAAUAACAAUGCCAACAUCCACCAACAGAGGAUUGAGCAUCA
B5: chr1:55067125:55067226:-|3pUTR|ENSG00000162402|msi1|total|mutant (ssRNA)
RNA: GGGAGUUCUACAGUCCGACGAUCUAUCAUCGCUGGCGACUGCACUCUCAGGAGCCCAAAAUCAGGAGUGAAAUUGCCACUUCCCGUCCCCUUAUUUCCUAUGGAAACAACGCCUUCCGCACCCCCCGCACCUGCCGUCCUCACCAACAGAGGAUUGAGCAUCA
B6: chr12:122133860:122133961:+|CDS|ENSG00000175727|msi1|FALSE|unique (ssRNA)
RNA: GGGAGUUCUACAGUCCGACGAUCUUUUGUGCACCCCAAACCUGUAUCCUUGACUGGGGGCAGGCCUAAGCAGCCCCACAAAAUAGUGCCUGCUCCCAAACCAGAGCCCGUGUCCUUGGUGUUGAAGAAUGCCCGUAUCGCCCCCAACAGAGGAUUGAGCAUCA
B7: chr14:75134463:75134564:-|3pUTR|ENSG00000170348|msi1|FALSE|unique (ssRNA)
RNA: GGGAGUUCUACAGUCCGACGAUCCUGUUUGGACUAUGUUUUCUUUUCUUCUCCCACUUGCUCAGCAGCUUGGGCUUCCAUUCUAGUUCUUUUACCAAGAUUUUUGUGUGACCAUGUUGACUUCAUUUGGAUUGCCCUCUUUCACAACAGAGGAUUGAGCAUCA
B8: chr2:32377587:32377702:+|CDS|ENSG00000115760|unk|FALSE|unique (ssRNA)
RNA: GGGAGUUCUACAGUCCGACGAUCGGUGAAAUGUCAGUAUAUCUCUGCUGUGGAUAAAGUUAUAUUUGUGGAUGAUUAUGCAGUAGGGUGUAGGAAGGACCUUAAUGGAAUCUUGUUGUUAGACACUGCUCUGCAAACUCCAGUCAACAGAGGAUUGAGCAUCA
B9: ENSG00000070961:be:win_1601|CDS|ENSG00000070961|bound_else_gene|NA|bound_elsewhere_windowed (ssRNA)
RNA: GGGAGUUCUACAGUCCGACGAUCAGGGUGGAUUACCUCGUCACGUUGGUAAUAAAACUGAAUGUGCCUUGUUGGGACUUCUUUUGGAUUUAAAACGGGAUUAUCAGGAUGUUAGAAAUGAAAUACCAGAAGAAGCACUGUACACAACAGAGGAUUGAGCAUCA
B10: chr20:58910839:58911044:+|3pUTR|ENSG00000087460|msi1_unk|FALSE|overlapping (ssRNA)
RNA: GGGAGUUCUACAGUCCGACGAUCCCUUAAGCACAAUUAAUUAAAAGUGAAACGUAAUUGUACAAGCAGUUAAUCACCCACCAUAGGGCAUGAUUAACAAAGCAACCUUUCCCUUCCCCCGAGUGAUUUUGCGAAACCCCCUUUCAACAGAGGAUUGAGCAUCA
B11: chr17:74579364:74580001:-|three_prime_utr|ENSG00000204345|control|control|control (ssRNA)
RNA: GGGAGUUCUACAGUCCGACGAUCGGGCGAAAGGCCCUCCCACAGAAGAAAAAACAUUUUCUUUUCUCUUCUUUUUUUCUUUCUAGAGAUAGAGUCUUGCUCUGUCACCCAGGCUGGAAUGCAAUGGUGUAAUCUCUGCUCACUCAACAGAGGAUUGAGCAUCA
B12: ENSG00000083857:stop:overlap|stop_codon|ENSG00000083857|stop_codon|NA|stop_codon (ssRNA)
RNA: GGGAGUUCUACAGUCCGACGAUCCACUUCCAUAUUCCAUUUUAUUUGUGGUACAUACAUUUCUCAGCCAUUUGGAAUUGUCAUAGAUACUGGCGUAAGGACAUGCUGUAUGGCUGAUUGGGCCUCUGGUAUCACUGGGAUACACAACAGAGGAUUGAGCAUCA
B13: ENSG00000103404:stop:overlap|stop_codon|ENSG00000103404|stop_codon|NA|stop_codon (ssRNA)
RNA: GGGAGUUCUACAGUCCGACGAUCUCUGCCCAAGAGCAAAUAAACGAACAUUCUUCCUCCUUUUCCUGAGUUGGGUCGUCCAGUAGGUAGCUGACUGAUUGGGGAGUGGUAUGUGCAGAUGGCAUUGUCUGGUCAACUGAGGAUCAACAGAGGAUUGAGCAUCA
B14: chr13:51761002:51761103:+|3pUTR|ENSG00000139668|unk|total|mutant (ssRNA)
RNA: GGGAGUUCUACAGUCCGACGAUCACGGCAAGAUUGUAAUCCUGCUGUAUUCCUCGCCCUCUGUAUUCUAUCCCUUUAAAAACCCGAUAUUUAAACAUUUUAUCCUAAUGUGUUUCAUCAGAACACUUUGCACACUUUCUUACUCAACAGAGGAUUGAGCAUCA
B15: chr16:68260521:68260622:+|3pUTR|ENSG00000103066|msi1|FALSE|unique (ssRNA)
RNA: GGGAGUUCUACAGUCCGACGAUCUCGCAGCUUCCCUGAGCUGCACCUCUUGCUAACCCCACCAUCACACUGCCACCCUGCCCUAGGGUCUCACUAGUACCAAGUGGGUCAGCACAGGGCUGAGGAUGGGGCUCCUAUCCACCCCAACAGAGGAUUGAGCAUCA
B16: chr1:113685846:113685948:+|3pUTR|ENSG00000081026|unk|total|mutant (ssRNA)
RNA: GGGAGUUCUACAGUCCGACGAUCUAUAUACACUUGAGGUUCUGAUCCGAGAAAGAUCUGUAAAUUGCUCAUUAUUUUUUAUACCGAUAUUUAAAAAAAACAGUUUAUGGCCUGCAUUUCUUUUACUGUCACAUUGGUUUAAUGCAACAGAGGAUUGAGCAUCA
B17: ENSG00000136451:be:win_3301|3pUTR|ENSG00000136451|bound_else_gene|NA|bound_elsewhere_windowed (ssRNA)
RNA: GGGAGUUCUACAGUCCGACGAUCAUUGUACAACUUUUGUAUAUAUAAAAGCUUAGGAACUUUCUGUUUAGCAGGAAGGCAACACAUUCCUACACUUUUAAUGUAUAUGUUUGUUAUAAUGUCCAUGUAAACAUGCCCUAUGUUCAACAGAGGAUUGAGCAUCA
B18: chr1:55067125:55067226:-|3pUTR|ENSG00000162402|msi1|FALSE|unique (ssRNA)
RNA: B5 RNA with C83U, C84A, C125U, C126A
B19: chr6:145799413:145799514:-|3pUTR|ENSG00000118496|msi1|total|mutant (ssRNA)
RNA: GGGAGUUCUACAGUCCGACGAUCUUAUCUCACAUACUUACAACUCAACACACAGAGUGACCAUGUGCAGCUUUCUUUUUUGUCCGAUGCCACAUCCGAAGACUCAUCGCAGUGUGUUAUAUGACAGGACAAAGCAAAAACAAACAACAGAGGAUUGAGCAUCA
B20: chr3:15254852:15254953:-|3pUTR|ENSG00000131370|msi1|FALSE|unique (ssRNA)
RNA: GGGAGUUCUACAGUCCGACGAUCAAACUGUUAAUUCUGUCACAGCCUGUAUAUUUUAGUCAUUUGUAAAUCUCUUCAUACAAUAGUGACUUCUUUUUUGACUGAUACAGUAUCUUAAUUACAAGGUUAUUUUGUACUUGUCUUCAACAGAGGAUUGAGCAUCA
B21: chrX:108174439:108174621:-|CDS|ENSG00000197565|control|control|control (ssRNA)
RNA: GGGAGUUCUACAGUCCGACGAUCCGACCUGGACCACCAGGCCUACCUGGAGCUCCUGGCCUCCCAGGCAUUAUCAAAGGAGUUAGUGGAAAGCCAGGGCCCCCUGGCUUCAUGGGAAUCCGGGGCUUACCUGGCCUGAAGGGGCAACAGAGGAUUGAGCAUCA
B22: chr8:23842440:23842541:-|3pUTR|ENSG00000159167|msi1|FALSE|unique (ssRNA)
RNA: GGGAGUUCUACAGUCCGACGAUCCCAAUGCGACAAGUAGUUCAUGAGUAUUCCUAGCAAAUUUCUCUCUUUCUUCAGUUCAGUAGAUUUCCUUUUUUCUUUUCUUUUUUUUUUUUUUUUUUUUUGGCUGUGACCUCUUCAAACCAACAGAGGAUUGAGCAUCA

Here are results for 22 molecules from PMC12136788.

Residue numbers refer to the chain shown, from its start. This is one part of the list.

In this experiment the target is MSI1 full-length (mouse, UniProt Q61474 1-362). Briefly: nsRBNS (natural sequence RNA bind-n-seq); RBNS binding buffer (assumed for nsRBNS): 25 mM Tris pH 7.5, 150 mM KCl, 3 mM MgCl2, 0.01% Triton X-100, 500 ug/ml BSA, 20 U/ml SUPERase-In, 4 C; UNK is unkempt and MSI1 is Musashi-1; names of the RNAs are library labels; protein concentration not given here; high values mean tight binding.
Sequence of UniProt Q61474 (Q61474 whole entry): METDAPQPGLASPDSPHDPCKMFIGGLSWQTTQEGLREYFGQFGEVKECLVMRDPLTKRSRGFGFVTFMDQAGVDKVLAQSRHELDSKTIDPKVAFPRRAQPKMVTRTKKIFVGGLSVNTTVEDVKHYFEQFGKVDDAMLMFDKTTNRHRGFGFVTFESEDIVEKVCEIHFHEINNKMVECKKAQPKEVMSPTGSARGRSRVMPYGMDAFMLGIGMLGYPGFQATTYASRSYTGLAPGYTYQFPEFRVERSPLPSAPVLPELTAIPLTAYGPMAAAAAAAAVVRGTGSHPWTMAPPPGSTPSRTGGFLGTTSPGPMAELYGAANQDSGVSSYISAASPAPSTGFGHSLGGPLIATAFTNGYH
Consider B1, for which the binding signal turned out to be 0.431 enrichment R. For B2, the binding signal worked out at 0.41 enrichment R. Regarding B3, the binding signal stood at 0.441 enrichment R. The molecule B4 displayed a binding signal of 0.345 enrichment R.

Regarding B5, the binding signal was 0.596 enrichment R. As to B6, the binding signal was found to be 0.519 enrichment R. Consider B7, for which the binding signal is 0.458 enrichment R.

The molecule B8 showed a binding signal of 0.684 enrichment R.

On to B9, for which the binding signal turned out to be 0.721 enrichment R.

B10: the binding signal stood at 0.824 enrichment R. As to B11, the binding signal worked out at 0.507 enrichment R. Turning to B12, the binding signal came to 0.711 enrichment R.

B13: the binding signal turned out to be 0.475 enrichment R. In turn, B14 returned a binding signal of 1.22 enrichment R.

In turn, B15 gave a binding signal of 0.468 enrichment R. In turn, B16 gave a binding signal of 1.76 enrichment R.

Molecule B17 gave a binding signal of 0.324 enrichment R. In the case of B18, the binding signal was found to be 0.591 enrichment R.

The molecule B19 registered a binding signal of 0.363 enrichment R. For B20, the binding signal turned out to be 0.848 enrichment R. The result for B21 reads 0.346 enrichment R; that for B22, 4.22 enrichment R.
